Experimental data published in article PMC7498353.
Results are given in words; binding and its absence hold for the method and conditions named. In cells and extracts the contact can be indirect. Some entries that bind do so weakly or less than the wild type.

Sequences of proteins named here, by UniProt entry; tags and fusion partners are left off.
UniProt P49336: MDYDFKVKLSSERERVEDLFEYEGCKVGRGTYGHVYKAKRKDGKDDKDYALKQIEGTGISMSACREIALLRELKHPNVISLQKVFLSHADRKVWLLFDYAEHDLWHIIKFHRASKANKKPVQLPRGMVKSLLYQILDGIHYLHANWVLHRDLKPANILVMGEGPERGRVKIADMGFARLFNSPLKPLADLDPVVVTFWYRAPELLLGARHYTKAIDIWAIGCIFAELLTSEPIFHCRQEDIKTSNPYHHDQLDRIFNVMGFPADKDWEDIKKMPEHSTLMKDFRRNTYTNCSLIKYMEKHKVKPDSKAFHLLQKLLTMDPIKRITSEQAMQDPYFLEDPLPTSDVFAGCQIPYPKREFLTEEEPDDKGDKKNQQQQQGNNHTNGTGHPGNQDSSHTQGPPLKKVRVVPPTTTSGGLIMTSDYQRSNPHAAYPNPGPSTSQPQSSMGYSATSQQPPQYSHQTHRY
UniProt Q93074: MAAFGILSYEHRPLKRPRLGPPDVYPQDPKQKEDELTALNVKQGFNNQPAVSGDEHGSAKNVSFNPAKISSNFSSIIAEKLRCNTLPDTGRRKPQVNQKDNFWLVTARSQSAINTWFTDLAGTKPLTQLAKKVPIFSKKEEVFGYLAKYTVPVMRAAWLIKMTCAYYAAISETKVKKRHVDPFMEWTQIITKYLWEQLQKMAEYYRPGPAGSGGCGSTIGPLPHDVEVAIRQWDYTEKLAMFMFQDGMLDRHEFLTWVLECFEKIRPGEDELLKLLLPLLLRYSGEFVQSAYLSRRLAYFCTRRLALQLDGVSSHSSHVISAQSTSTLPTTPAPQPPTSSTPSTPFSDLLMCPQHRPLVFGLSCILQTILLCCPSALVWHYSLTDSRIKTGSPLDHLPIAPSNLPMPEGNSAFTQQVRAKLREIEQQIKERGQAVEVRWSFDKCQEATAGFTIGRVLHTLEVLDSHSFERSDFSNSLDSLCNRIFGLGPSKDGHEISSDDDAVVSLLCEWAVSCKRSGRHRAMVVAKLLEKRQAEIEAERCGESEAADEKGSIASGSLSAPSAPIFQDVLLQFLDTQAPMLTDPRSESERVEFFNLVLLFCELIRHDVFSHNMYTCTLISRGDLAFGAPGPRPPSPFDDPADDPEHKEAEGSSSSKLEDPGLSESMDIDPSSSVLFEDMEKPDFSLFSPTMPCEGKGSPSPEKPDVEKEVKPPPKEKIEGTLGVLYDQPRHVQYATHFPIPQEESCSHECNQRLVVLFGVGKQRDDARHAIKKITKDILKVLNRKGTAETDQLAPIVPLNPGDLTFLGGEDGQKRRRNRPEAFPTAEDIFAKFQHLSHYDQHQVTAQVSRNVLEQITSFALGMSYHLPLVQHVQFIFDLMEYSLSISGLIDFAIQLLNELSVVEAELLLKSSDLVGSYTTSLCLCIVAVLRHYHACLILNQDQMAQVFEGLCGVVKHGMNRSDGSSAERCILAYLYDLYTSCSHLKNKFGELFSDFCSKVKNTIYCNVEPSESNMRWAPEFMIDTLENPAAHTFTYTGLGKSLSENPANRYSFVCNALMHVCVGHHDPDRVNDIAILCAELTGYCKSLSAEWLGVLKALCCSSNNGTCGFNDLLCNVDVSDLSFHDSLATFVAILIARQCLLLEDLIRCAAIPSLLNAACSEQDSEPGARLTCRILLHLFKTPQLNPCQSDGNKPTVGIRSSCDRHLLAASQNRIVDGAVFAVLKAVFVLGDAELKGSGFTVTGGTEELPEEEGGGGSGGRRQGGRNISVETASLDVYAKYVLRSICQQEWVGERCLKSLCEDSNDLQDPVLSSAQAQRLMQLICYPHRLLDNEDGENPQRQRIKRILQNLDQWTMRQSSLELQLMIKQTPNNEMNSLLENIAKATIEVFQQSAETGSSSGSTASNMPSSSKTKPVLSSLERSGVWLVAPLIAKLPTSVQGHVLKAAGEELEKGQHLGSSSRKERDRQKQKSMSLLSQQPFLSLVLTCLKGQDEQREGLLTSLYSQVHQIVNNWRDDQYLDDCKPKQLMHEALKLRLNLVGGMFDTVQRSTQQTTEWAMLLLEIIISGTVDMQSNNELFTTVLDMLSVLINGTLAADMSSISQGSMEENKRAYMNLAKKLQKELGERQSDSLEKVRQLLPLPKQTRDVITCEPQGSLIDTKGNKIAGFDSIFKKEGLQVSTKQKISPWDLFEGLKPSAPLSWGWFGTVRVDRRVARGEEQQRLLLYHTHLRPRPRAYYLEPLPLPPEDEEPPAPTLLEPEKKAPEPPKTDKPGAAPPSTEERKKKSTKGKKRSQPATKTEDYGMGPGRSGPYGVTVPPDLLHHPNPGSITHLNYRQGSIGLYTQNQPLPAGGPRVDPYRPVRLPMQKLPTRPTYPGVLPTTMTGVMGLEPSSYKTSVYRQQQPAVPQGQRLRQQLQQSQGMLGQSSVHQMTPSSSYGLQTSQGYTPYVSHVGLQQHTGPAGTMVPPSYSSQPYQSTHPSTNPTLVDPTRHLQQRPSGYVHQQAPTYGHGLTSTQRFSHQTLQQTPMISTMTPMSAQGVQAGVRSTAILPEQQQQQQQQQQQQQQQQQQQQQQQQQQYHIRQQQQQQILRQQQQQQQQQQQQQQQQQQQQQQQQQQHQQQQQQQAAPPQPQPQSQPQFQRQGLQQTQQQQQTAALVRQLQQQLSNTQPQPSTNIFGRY
UniProt O15527: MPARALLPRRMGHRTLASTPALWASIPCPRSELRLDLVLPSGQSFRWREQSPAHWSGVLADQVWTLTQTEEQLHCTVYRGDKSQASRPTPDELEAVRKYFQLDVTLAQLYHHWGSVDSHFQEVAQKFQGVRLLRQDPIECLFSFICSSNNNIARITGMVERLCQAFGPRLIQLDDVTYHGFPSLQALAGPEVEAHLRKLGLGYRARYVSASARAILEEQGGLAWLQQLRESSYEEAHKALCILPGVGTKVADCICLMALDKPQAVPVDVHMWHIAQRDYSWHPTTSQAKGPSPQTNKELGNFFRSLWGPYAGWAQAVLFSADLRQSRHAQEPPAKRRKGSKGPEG

Key:
CDK8-GFP (human) [1] = biological target: CDK8-GFP (human) (UniProt P49336); test: FRET or BRET; FLIM-FRET in fixed HeLa cells; donor CDK8-GFP, acceptor OGG1-Halotag (TMR) or OGG1-mCherry; non-treated cells (no oxidative stress); donor lifetime measured in the nucleus
CDK8-GFP (human) [2] = biological target: CDK8-GFP (human) (UniProt P49336); test: FRET or BRET; FLIM-FRET in fixed HeLa cells; donor CDK8-GFP, acceptor OGG1-Halotag (TMR) or OGG1-mCherry; cells treated with 40 mM KBrO3, 3 h recovery (K3), with or without CSK wash; donor lifetime measured in the nucleus
[3] = biological target: mediator CKM subunit CDK8 (human (endogenous in HeLa)) (UniProt P49336); test: co-IP; HeLa OGG1–GFP cells treated with 40 mM KBrO3 (K3, 3 h recovery); benzonase-treated lysate (150 mM NaCl, 0.1% NP40); IP with antibody against SMC1, MED12 or CDK8 or control IgG on Dynabeads; OGG1 detected by western blot
[4] = biological target: mediator CKM subunit MED12 (human (endogenous in HeLa)) (UniProt Q93074); test: as above
[5] = biological target: mediator CKM subunit CDK8 (human (endogenous in HeLa)) (UniProt P49336); test: co-IP; non-treated (NT) HeLa OGG1–GFP cells; benzonase-treated lysate (150 mM NaCl, 0.1% NP40); IP with antibody against SMC1, MED12 or CDK8 or control IgG on Dynabeads; OGG1 detected by western blot
[6] = biological target: mediator CKM subunit MED12 (human (endogenous in HeLa)) (UniProt Q93074); test: as above

| Substance | binding (CDK8-GFP (human) [1]) | binding (CDK8-GFP (human) [2]) | binding [3] | binding [4] | binding [5] | binding [6] |
| --- | --- | --- | --- | --- | --- | --- |
| OGG1-mCherry (from UniProt O15527 1-345) (enzyme) | no binding (condition: non-treated cells (without KBrO3)) | binds | – | – | – | – |
| hOGG1 fused to GFP (8-oxoguanine DNA glycosylase 1) (from UniProt O15527 1-345) (enzyme) | – | – | binds | binds | no binding (condition: non-treated cells (without KBrO3)) | no binding (condition: non-treated cells (without KBrO3)) |
